Reference: the supplement of paper PMC4967469
By IC50 is meant the dose at which the fit gives 50% viability; a fit beyond the top or the lowest dose is shown as a bound at that dose. AUC is the area under the same curve over the 256-fold range up to the top dose, as a fraction; it is 1 without any effect and falls as sensitivity rises.

Compound: Cn1c(=O)n(-c2ccc(C(C)(C)C#N)cc2)c2c3cc(-c4cnc5ccccc5c4)ccc3ncc21 [NVP-BEZ235]
Assay: Viability of human cancer cell lines after 72 h of drug (GDSC screen)
Description: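 Human cancer cell lines in 384-well plates, medium with 10% serum, drug for 72 h over a 256-fold dose range (nine 2-fold or five 4-fold steps up to the top dose). Adherent lines were fixed and stained with the nucleic acid dye Syto60, suspension lines read with resazurin; signal relative to control wells, capped at 0 and 100%. One two-parameter sigmoid per drug and line, fitted in a mixed model over all curves with the slope shared within a line.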

Cell Line: KM12 (large intestine, adherent, top dose 0.25 µM)
- AUC: 0.838
- IC50: 0.191 µM

Cell Line: KM-H2 (Hodgkin lymphoma, suspension, top dose 0.25 µM)
- AUC: 0.963
- IC50: > 0.25 µM

Cell Line: KMH-2 (thyroid, adherent, top dose 0.25 µM)
- AUC: 0.72
- IC50: 0.0603 µM

Cell Line: KMOE-2 (acute myeloid leukaemia, suspension, top dose 0.25 µM)
- AUC: 0.717
- IC50: 0.0593 µM

Cell Line: KMRC-1 (kidney, adherent, top dose 0.25 µM)
- AUC: 0.686
- IC50: 0.0535 µM

Cell Line: KMRC-20 (kidney, adherent, top dose 0.25 µM)
- AUC: 0.661
- IC50: 0.044 µM

Cell Line: KMS-11 (myeloma, suspension, top dose 0.25 µM)
- AUC: 0.738
- IC50: 0.0662 µM

Cell Line: KNS-42 (glioma, adherent, top dose 0.25 µM)
- AUC: 0.788
- IC50: 0.133 µM

Cell Line: KNS-62 (lung squamous cell carcinoma, adherent, top dose 0.25 µM)
- AUC: 0.651
- IC50: 0.0498 µM

Cell Line: KNS-81-FD (glioma, adherent, top dose 0.25 µM)
- AUC: 0.56
- IC50: 0.0241 µM

Cell Line: KON (head and neck, adherent, top dose 0.25 µM)
- AUC: 0.419
- IC50: 0.00944 µM

Cell Line: KOPN-8 (B-cell leukaemia, suspension, top dose 0.25 µM)
- AUC: 0.622
- IC50: 0.0321 µM

Cell Line: KP-1N (pancreas, adherent, top dose 0.25 µM)
- AUC: 0.768
- IC50: 0.0981 µM

Cell Line: KP-2 (pancreas, adherent, top dose 0.25 µM)
- AUC: 0.699
- IC50: 0.0597 µM

Cell Line: KP-3 (pancreas, adherent, top dose 0.25 µM)
- AUC: 0.801
- IC50: 0.149 µM

Cell Line: KP-N-YN (neuroblastoma, adherent, top dose 0.25 µM)
- AUC: 0.987
- IC50: > 0.25 µM

Cell Line: KS-1 (glioma, adherent, top dose 0.25 µM)
- AUC: 0.639
- IC50: 0.0416 µM

Cell Line: KU812 (chronic myeloid leukaemia, suspension, top dose 0.25 µM)
- AUC: 0.785
- IC50: 0.0973 µM

Cell Line: KU-19-19 (bladder, adherent, top dose 0.25 µM)
- AUC: 0.609

Cell Line: KURAMOCHI (ovary, adherent, top dose 0.25 µM)
- AUC: 0.817
- IC50: 0.169 µM

Cell Line: KY821 (leukaemia, suspension, top dose 0.25 µM)
- AUC: 0.878
- IC50: 0.199 µM

Cell Line: KYAE-1 (oesophagus, suspension, top dose 0.25 µM)
- AUC: 0.645
- IC50: 0.0413 µM

Cell Line: KYM-1 (rhabdomyosarcoma, adherent, top dose 2 µM)
- AUC: 0.217
- IC50: 0.0218 µM

Cell Line: KYSE-50 (oesophagus, adherent, top dose 0.25 µM)
- AUC: 0.899
- IC50: > 0.25 µM

Cell Line: KYSE-140 (oesophagus, adherent, top dose 0.25 µM)
- AUC: 0.715
- IC50: 0.0693 µM

Cell Line: KYSE-150 (oesophagus, adherent, top dose 0.25 µM)
- AUC: 0.591
- IC50: 0.0275 µM

Cell Line: KYSE-220 (oesophagus, adherent, top dose 0.25 µM)
- AUC: 0.895
- IC50: > 0.25 µM

Cell Line: KYSE-410 (oesophagus, adherent, top dose 0.25 µM)
- AUC: 0.562
- IC50: 0.0233 µM

Cell Line: KYSE-450 (oesophagus, adherent, top dose 0.25 µM)
- AUC: 0.712
- IC50: 0.0595 µM

Cell Line: KYSE-510 (oesophagus, adherent, top dose 0.25 µM)
- AUC: 0.708
- IC50: 0.0535 µM

Cell Line: KYSE-520 (oesophagus, adherent, top dose 0.25 µM)
- AUC: 0.755
- IC50: 0.113 µM

Cell Line: L-363 (myeloma, suspension, top dose 0.25 µM)
- AUC: 0.408
- IC50: 0.00908 µM

Cell Line: L-428 (Hodgkin lymphoma, suspension, top dose 0.25 µM)
- AUC: 0.757
- IC50: 0.0769 µM

Cell Line: L-540 (Hodgkin lymphoma, suspension, top dose 0.25 µM)
- AUC: 0.694
- IC50: 0.0508 µM

Cell Line: L-1236 (Hodgkin lymphoma, suspension, top dose 0.25 µM)
- AUC: 0.443
- IC50: 0.0112 µM

Cell Line: LAMA-84 (chronic myeloid leukaemia, suspension, top dose 0.25 µM)
- AUC: 0.577
- IC50: 0.0255 µM

Cell Line: LAN-6 (neuroblastoma, adherent, top dose 0.25 µM)
- AUC: 0.968
- IC50: > 0.25 µM

Cell Line: LB373-MEL-D (melanoma, adherent, top dose 0.25 µM)
- AUC: 0.978
- IC50: > 0.25 µM

Cell Line: LB647-SCLC (small cell lung carcinoma, semi-adherent, top dose 0.25 µM)
- AUC: 0.812
- IC50: 0.154 µM
